Measured values as given in publication PMC9911399, “Two distinct binding modes provide the RNA-binding protein RbFox with extraordinary sequence specificity”.
Substitutions are numbered along the chain they refer to; changes in the protein carry UniProt numbers. The list shows a part of the results.

T1: RBFOX1 RRM RbFoxmut (Fox-RRM*) (Homo sapiens, UniProt Q9NWB1 109-208, R118D;E147R;N151S;E152T)
T1 sequence: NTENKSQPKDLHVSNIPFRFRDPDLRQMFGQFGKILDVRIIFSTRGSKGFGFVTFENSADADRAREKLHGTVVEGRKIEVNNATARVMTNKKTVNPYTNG

B1: GUCUGCC (DNA:RNA)
RNA: GGGAGACCGGAAUUCAGAUUGUCCGUCUGCCUUAAAUCCCGUCGUAGCCACCA
DNA 1: CAATCTGAATTCCGGTCTCCC
DNA 2: TGGTGGCTACGACGGGATT
B2: CACAAGA (DNA:RNA)
RNA: B1 RNA with G25C, U26A, U28A, G29A, C30G, C31A
DNA 1: CAATCTGAATTCCGGTCTCCC
DNA 2: TGGTGGCTACGACGGGATT
B3: GUGGCUA (DNA:RNA)
RNA: B1 RNA with C27G, U28G, G29C, C30U, C31A
DNA 1: CAATCTGAATTCCGGTCTCCC
DNA 2: TGGTGGCTACGACGGGATT
B4: CAACCAG (DNA:RNA)
RNA: GGGAGACCGGAAUUCAGAUUGUCCCAACCAGUUAAAUCCCGUCGUAGCCACCA
DNA 1: CAATCTGAATTCCGGTCTCCC
DNA 2: TGGTGGCTACGACGGGATT
B5: UUGCUGU (DNA:RNA)
RNA: B4 RNA with C25U, A26U, A27G, C29U, A30G, G31U
DNA 1: CAATCTGAATTCCGGTCTCCC
DNA 2: TGGTGGCTACGACGGGATT
B6: UACUCAC (DNA:RNA)
RNA: B4 RNA with C25U, A27C, C28U, G31C
DNA 1: CAATCTGAATTCCGGTCTCCC
DNA 2: TGGTGGCTACGACGGGATT
B7: CUUCAAA (DNA:RNA)
RNA: B4 RNA with A26U, A27U, C29A, G31A
DNA 1: CAATCTGAATTCCGGTCTCCC
DNA 2: TGGTGGCTACGACGGGATT
B8: ACCAUUA (DNA:RNA)
RNA: B1 RNA with G25A, U26C, U28A, G29U, C30U, C31A
DNA 1: CAATCTGAATTCCGGTCTCCC
DNA 2: TGGTGGCTACGACGGGATT
B9: CGCAAAU (DNA:RNA)
RNA: B4 RNA with A26G, A27C, C28A, C29A, G31U
DNA 1: CAATCTGAATTCCGGTCTCCC
DNA 2: TGGTGGCTACGACGGGATT
B10: AAAAGAG (DNA:RNA)
RNA: B4 RNA with C25A, C28A, C29G
DNA 1: CAATCTGAATTCCGGTCTCCC
DNA 2: TGGTGGCTACGACGGGATT
B11: CUAUUAC (DNA:RNA)
RNA: B4 RNA with A26U, C28U, C29U, G31C
DNA 1: CAATCTGAATTCCGGTCTCCC
DNA 2: TGGTGGCTACGACGGGATT
B12: GACCGGC (DNA:RNA)
RNA: B1 RNA with U26A, U28C, C30G
DNA 1: CAATCTGAATTCCGGTCTCCC
DNA 2: TGGTGGCTACGACGGGATT
B13: AUAUUCG (DNA:RNA)
RNA: B1 RNA with G25A, C27A, G29U, C31G
DNA 1: CAATCTGAATTCCGGTCTCCC
DNA 2: TGGTGGCTACGACGGGATT
B14: GAUAUAU (DNA:RNA)
RNA: B4 RNA with C25G, A27U, C28A, C29U, G31U
DNA 1: CAATCTGAATTCCGGTCTCCC
DNA 2: TGGTGGCTACGACGGGATT
B15: CUCGUGG (DNA:RNA)
RNA: B4 RNA with A26U, A27C, C28G, C29U, A30G
DNA 1: CAATCTGAATTCCGGTCTCCC
DNA 2: TGGTGGCTACGACGGGATT
B16: AGGGUAC (DNA:RNA)
RNA: B4 RNA with C25A, A26G, A27G, C28G, C29U, G31C
DNA 1: CAATCTGAATTCCGGTCTCCC
DNA 2: TGGTGGCTACGACGGGATT
B17: CUUGCUG (DNA:RNA)
RNA: B4 RNA with A26U, A27U, C28G, A30U
DNA 1: CAATCTGAATTCCGGTCTCCC
DNA 2: TGGTGGCTACGACGGGATT
B18: ACUACUU (DNA:RNA)
RNA: B4 RNA with C25A, A26C, A27U, C28A, A30U, G31U
DNA 1: CAATCTGAATTCCGGTCTCCC
DNA 2: TGGTGGCTACGACGGGATT
B19: GUAUUGU (DNA:RNA)
RNA: B1 RNA with C27A, G29U, C30G, C31U
DNA 1: CAATCTGAATTCCGGTCTCCC
DNA 2: TGGTGGCTACGACGGGATT
B20: GAGGACA (DNA:RNA)
RNA: B1 RNA with U26A, C27G, U28G, G29A, C31A
DNA 1: CAATCTGAATTCCGGTCTCCC
DNA 2: TGGTGGCTACGACGGGATT

The binders below were run against T1, RBFOX1 RRM RbFoxmut (Fox-RRM*) (assay: EMSA; HiTS-Eq, 1 nM pool, 10 min; buffer printed only for the single-RNA assays: 10 mM Tris pH 7.5, 150 mM NaCl, 3.4 mM EDTA, 0.001% NP-40, 30 C). Settings: tags: His6 N-terminal (pET28a); label: 5' 32P.
Outline: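 Relative association constants, normalised to the cognate motif, were derived by comparing read counts of each RNA species with those of the control reaction. The RNA sequenced was the free fraction, separated by 8% native PAGE after a 10 min equilibration in 50 µL of 1 nM 5′-radiolabelled RNA (7 randomized nucleotides) with increasing concentrations of purified wild-type or mutant RbFox RRM.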
B1 was tested, and the binding signal was 0.181 KA relative to UGCAUGU. B2 was tested, and the binding signal was 0.0712 KA relative to UGCAUGU. For B3, the binding signal was 0.143 KA relative to UGCAUGU. B4 was tested, and the binding signal was 0.094 KA relative to UGCAUGU. B5 was tested, and the binding signal was 0.158 KA relative to UGCAUGU. With B6 the binding signal was 0.0678 KA relative to UGCAUGU. With B7 the binding signal was 0.0963 KA relative to UGCAUGU. B8 was tested, and the binding signal was 0.125 KA relative to UGCAUGU. For B9, the binding signal was 0.086 KA relative to UGCAUGU. With B10 the binding signal was 0.0968 KA relative to UGCAUGU. For B11, the binding signal was 0.121 KA relative to UGCAUGU. B12 was tested, and the binding signal was 0.104 KA relative to UGCAUGU. In the case of B13, the binding signal is reported as 0.123 KA relative to UGCAUGU. For B14, the binding signal was 0.109 KA relative to UGCAUGU. In the case of B15, the binding signal is reported as 0.0647 KA relative to UGCAUGU. B16 was tested, and the binding signal was 0.106 KA relative to UGCAUGU. In the case of B17, the binding signal is reported as 0.128 KA relative to UGCAUGU. B18 was tested, and the binding signal was 0.114 KA relative to UGCAUGU. B19 was tested, and the binding signal was 0.309 KA relative to UGCAUGU. With B20 the binding signal was 0.0433 KA relative to UGCAUGU.
